Assay results published in patent US20100285131A1 (published 2010).

Key:
cyno β-Klotho [1] = molecular target: T1, cyno β-Klotho (cyno, UniProt A0A2K5WB58 53-996); assay: Biacore solution equilibrium binding; 25 nM cyno b-Klotho; plot key and legend give Fc-(G4S)3-FGF21 (L98R, P171G, A180E)
T1 chain: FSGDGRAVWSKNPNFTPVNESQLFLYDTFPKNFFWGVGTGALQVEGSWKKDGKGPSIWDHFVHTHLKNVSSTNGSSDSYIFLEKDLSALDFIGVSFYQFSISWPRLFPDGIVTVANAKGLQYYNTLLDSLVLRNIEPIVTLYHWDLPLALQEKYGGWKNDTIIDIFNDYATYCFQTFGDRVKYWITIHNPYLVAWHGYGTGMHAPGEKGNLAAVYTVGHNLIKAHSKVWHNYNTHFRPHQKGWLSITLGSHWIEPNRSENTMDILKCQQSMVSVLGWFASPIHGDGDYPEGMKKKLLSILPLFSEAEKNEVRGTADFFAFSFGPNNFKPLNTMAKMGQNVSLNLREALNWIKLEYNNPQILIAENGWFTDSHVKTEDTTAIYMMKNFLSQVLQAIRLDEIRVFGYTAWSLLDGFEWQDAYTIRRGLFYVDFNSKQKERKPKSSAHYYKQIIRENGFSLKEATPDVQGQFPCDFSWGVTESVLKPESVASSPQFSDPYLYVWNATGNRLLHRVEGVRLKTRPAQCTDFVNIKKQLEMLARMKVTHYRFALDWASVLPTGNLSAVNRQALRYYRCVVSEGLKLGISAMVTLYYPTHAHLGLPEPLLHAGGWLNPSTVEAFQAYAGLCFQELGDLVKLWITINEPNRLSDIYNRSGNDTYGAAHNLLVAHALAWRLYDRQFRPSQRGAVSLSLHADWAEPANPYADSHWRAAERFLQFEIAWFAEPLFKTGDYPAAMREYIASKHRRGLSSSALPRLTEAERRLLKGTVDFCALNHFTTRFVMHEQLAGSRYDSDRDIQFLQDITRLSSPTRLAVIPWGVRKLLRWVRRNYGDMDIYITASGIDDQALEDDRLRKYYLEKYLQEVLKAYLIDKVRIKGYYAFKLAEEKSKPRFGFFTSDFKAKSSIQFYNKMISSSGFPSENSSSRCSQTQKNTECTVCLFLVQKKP

human β-Klotho = human β-Klotho (human, UniProt Q86Z14 53-996); assay: Biacore solution equilibrium binding; 10 nM human b-Klotho
Chain of human β-Klotho (Q86Z14 53-996): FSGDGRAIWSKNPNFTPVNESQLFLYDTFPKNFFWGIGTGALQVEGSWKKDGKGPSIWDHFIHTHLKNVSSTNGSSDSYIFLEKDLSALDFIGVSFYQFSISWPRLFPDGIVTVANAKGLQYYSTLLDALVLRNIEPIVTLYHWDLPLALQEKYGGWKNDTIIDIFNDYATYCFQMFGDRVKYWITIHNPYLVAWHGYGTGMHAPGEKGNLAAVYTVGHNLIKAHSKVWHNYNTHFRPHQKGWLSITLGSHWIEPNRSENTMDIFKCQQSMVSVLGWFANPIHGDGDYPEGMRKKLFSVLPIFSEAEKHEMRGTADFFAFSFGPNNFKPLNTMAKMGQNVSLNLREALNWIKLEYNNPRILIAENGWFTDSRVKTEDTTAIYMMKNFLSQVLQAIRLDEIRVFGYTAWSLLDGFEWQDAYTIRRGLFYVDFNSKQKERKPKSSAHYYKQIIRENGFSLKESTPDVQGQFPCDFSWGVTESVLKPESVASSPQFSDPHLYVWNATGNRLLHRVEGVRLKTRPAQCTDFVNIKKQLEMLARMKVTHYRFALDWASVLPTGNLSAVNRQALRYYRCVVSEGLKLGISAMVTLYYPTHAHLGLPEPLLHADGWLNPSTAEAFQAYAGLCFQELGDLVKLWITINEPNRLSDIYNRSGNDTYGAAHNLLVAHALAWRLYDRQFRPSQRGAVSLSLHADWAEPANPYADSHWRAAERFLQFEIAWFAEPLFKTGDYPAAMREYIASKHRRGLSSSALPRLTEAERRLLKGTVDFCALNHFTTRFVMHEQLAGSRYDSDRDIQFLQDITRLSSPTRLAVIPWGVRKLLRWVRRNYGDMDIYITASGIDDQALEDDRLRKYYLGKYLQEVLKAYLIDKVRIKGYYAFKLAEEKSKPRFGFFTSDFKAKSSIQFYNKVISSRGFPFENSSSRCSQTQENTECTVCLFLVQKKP

cyno β-Klotho [2] = molecular target: T1, cyno β-Klotho; assay: Biacore solution equilibrium binding; 25 nM cyno b-Klotho

- EC50 (cyno β-Klotho [1]): 10.4 nM
- EC50 (human β-Klotho): 12.9 nM
B1: Fc-(G4S)3-FGF21 (L98R, P171G, A180E) (Fc fusion)
chain: [skipping human IgG1 Fc]GGGGSGGGGSGGGGSHPIPDSSPLLQFGGQVRQRYLYTDDAQQTEAHLEIREDGTVGGAADQSPESLLQLKALKPGVIQILGVKTSRFLCQRPDGALYGSLHFDPEACSFRERLLEDGYNVYQSEAHGLPLHLPGNKSPHRDPAPRGPARFLPLPGLPPAPPEPPGILAPQPPDVGSSDPLSMVGGSQGRSPSYES

- EC50 (cyno β-Klotho [2]): 30.8 nM
- EC50 (human β-Klotho): 32.2 nM
B2: Fc-(L15)-FGF21 (L98R, P171G) (Fc fusion)
chain: [skipping human IgG1 Fc]GGGGGSGGGSGGGGSHPIPDSSPLLQFGGQVRQRYLYTDDAQQTEAHLEIREDGTVGGAADQSPESLLQLKALKPGVIQILGVKTSRFLCQRPDGALYGSLHFDPEACSFRERLLEDGYNVYQSEAHGLPLHLPGNKSPHRDPAPRGPARFLPLPGLPPAPPEPPGILAPQPPDVGSSDPLSMVGGSQGRSPSYAS

Each block holds one binder with its values, some of them ahead of it.
